From PubChem BioAssay AID2060331 (Molecular Pharmacology Branch, DTP, NCI, 2025) come the findings set out here.

The assay relates to Hs578T multi-cell spheroids, viability. The assay is described as follows: Anticancer human tumor Hs578T cell line growth inhibition [IpAb].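 Note: drug exposure lasted 7 days before readout.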 The settings on record: compound alone; run of 06/01/2021. From the text:
Combinatorial screen of targeted agents with ipatasertib and abemaciclib in multi-cell type tumor spheroids
A high-throughput screen of multi-cell type tumor spheroids was designed to identify active combinations of targeted small molecules and ipatasertib or abemaciclib. Complex spheroids include a stromal component modeled by human endothelial cells (HUVEC) and fibroblasts modeled by human mesenchymal stem cells (MSCs). The concentration ranges selected for each drug and investigational agent were based upon clinically achievable concentrations if the clinical Cmax of the agent was known.
Compounds. […] If the clinical Cmax for an agent had not been determined, the highest concentration tested was 10 microM.
NCI60 Cell Culture. […] The optimal seeding densities for each of the cell lines at each time point assessed were determined prior to performing the concentration response studies. […]

For part of its entries the source gives two or more results. This is not the full list of results. An entry can have further records. The records of an entry are repeated measurements in other runs, samples, wells, individuals or studies.

As for `CC(C)NCC(C(=O)N1CCN(c2ncnc3c2C(C)CC3O)CC1)c1ccc(Cl)cc1` (stereo unspecified), the IC50 (commonly the concentration at which inhibition is half-maximal) is reported as 4.29 µM, 7.14 µM, > 10 µM, 4.9 µM, 6.73 µM, 2.79 µM, 5.7 µM, 4.13 µM, 4.31 µM, 2.6 µM, 6.68 µM.
